In publication PMC7819943, “Rice protein-binding microarrays: a tool to detect cis-acting elements near promoter regions in rice”:
Some of the results follow.

The sequences below were run against T1, OsWOX13 (Oryza sativa, UniProt Q5QMM3 1-267) (assay: protein-binding microarray (RPBM); PBS, 2% BSA, 51.3 ng/ul salmon testes DNA, 50 uM zinc acetate, 200 nM TF, 25 C, 1 h; high values mean tight binding). Settings: protein: recombinant; tags: N-terminal polyhistidine and DsRed monomer fusion (pET32a); label: CyDye5-dUTP incorporated in the synthesized complementary strand; 3' TTTTT single-stranded linker to array surface; dsDNA, one strand shown.
T1 sequence: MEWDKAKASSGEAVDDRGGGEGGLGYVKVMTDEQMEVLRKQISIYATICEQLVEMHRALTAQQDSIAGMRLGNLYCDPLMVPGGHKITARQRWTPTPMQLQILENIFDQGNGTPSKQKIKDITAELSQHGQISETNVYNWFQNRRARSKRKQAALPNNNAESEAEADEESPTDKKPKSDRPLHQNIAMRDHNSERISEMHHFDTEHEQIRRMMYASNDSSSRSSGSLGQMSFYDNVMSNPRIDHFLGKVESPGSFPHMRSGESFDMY
Outline: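 Transcription factors, each fused N-terminally to a polyhistidine tag and DsRed, were expressed in E. coli BL21-CodonPlus and purified on Ni–NTA. A custom Agilent array was made double-stranded by primer extension with Cy5-dUTP and blocked with 2% BSA. It was incubated with 200 nM protein in PBS, 2% BSA, salmon testes DNA and 50 µM zinc acetate at 25 °C for 1 h, then washed. The binding signal is per-feature fluorescence intensity (arbitrary units) read on an Axon 4000B scanner.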

Sequence | binding signal
TGAAAATTAATTATAAATATTAAACGTAGACTATTAATAACGGAGTCACCTAGTGCAG | 11800 fluorescence intensity (a.u.)
CCAAATTAGACCTTATGTAAGCTTTTGTTAGCAACTGCAACGGAGTCACCTAGTGCAG | 10300 fluorescence intensity (a.u.)
GTCTTAATTGTGATCTTGTATTATTGTTAGTTTGGCGCCCCGGAGTCACCTAGTGCAG | 29800 fluorescence intensity (a.u.)
CCATTAAAGATGTTATGATTAATCATCATTACAAATTCAACGGAGTCACCTAGTGCAG | 5620 fluorescence intensity (a.u.)
CCATGTGAATGACTGATCAGCCAGCACAGTAGTTAGCATACGGAGTCACCTAGTGCAG | 4300 fluorescence intensity (a.u.)
ACAAATTGGAATGATCAAATTGAGTTAAACTAAGGAGATACGGAGTCACCTAGTGCAG | 39700 fluorescence intensity (a.u.)
AAAACTCAATCAATCATACGTTAATACCATCTCATTTTACCGGAGTCACCTAGTGCAG | 24500 fluorescence intensity (a.u.)
GAGCATCCAAATCAATCAATTATTGGACCATTATTGGGCTCGGAGTCACCTAGTGCAG | 26400 fluorescence intensity (a.u.)
GAAAAGATTGAAGGGATCAAGGGAGTACAACAAAACACTTCGGAGTCACCTAGTGCAG | 3900 fluorescence intensity (a.u.)
AGCTGATTGCAACAACAAAGCTCCATATCATAGAACTAAACGGAGTCACCTAGTGCAG | 26700 fluorescence intensity (a.u.)
AATCAACTATAATTAGTTGGCTATATTATTAAACTTGATCCGGAGTCACCTAGTGCAG | 4900 fluorescence intensity (a.u.)
GATTTCATAACTCCTAATTAATCAGTAGAATTACTAATCACGGAGTCACCTAGTGCAG | 6940 fluorescence intensity (a.u.)
TCAGTATATTGATTGTTAGTCTTTTATCGTCTTGAATGAACGGAGTCACCTAGTGCAG | 31300 fluorescence intensity (a.u.)
CATAACAGGCTTTAACTTTAAACATGCCATCCCTAACTTTCGGAGTCACCTAGTGCAG | 6270 fluorescence intensity (a.u.)
ATAATAAACAGTAATATAAGAAATATCACTCCACGAATATCGGAGTCACCTAGTGCAG | 3430 fluorescence intensity (a.u.)
AGATATCCAATCAAGGCTTTCATCGCTAGTCATCTATATCCGGAGTCACCTAGTGCAG | 9590 fluorescence intensity (a.u.)
CGACAAATTTACAAGTCAGTTGCTGCCACTGTTTTCTATACGGAGTCACCTAGTGCAG | 5560 fluorescence intensity (a.u.)
CTTAACTCTGGAGTTATTTGGAGATTGGCTTCCGGAAAAGCGGAGTCACCTAGTGCAG | 3150 fluorescence intensity (a.u.)
AATCTTGGCAAATTTCCTTAATTTGAACCTACGTGTTAAACGGAGTCACCTAGTGCAG | 5550 fluorescence intensity (a.u.)
TACTTCATCCTCATTATTCAATTTAAACGGTCATTTGCTCCGGAGTCACCTAGTGCAG | 3410 fluorescence intensity (a.u.)
TAAGTTAATAGATATTTAACGTTTATAATAAGATTTGTTTCGGAGTCACCTAGTGCAG | 9590 fluorescence intensity (a.u.)

Sequence | binding signal
GATATGTGATAGAAATCATTTGATACCTTGCAAGTATCGCCGGAGTCACCTAGTGCAG | 18700 fluorescence intensity (a.u.)
TGAAGGATGGGGAGTTGATTGCGGGAGGGATGAGTGTGGACGGAGTCACCTAGTGCAG | 7930 fluorescence intensity (a.u.)
ACTTAGATTTATCAGCTAACTTGCTACCAAAAGTTTTGCGCGGAGTCACCTAGTGCAG | 9030 fluorescence intensity (a.u.)
AAACTATTAGATTGGCTATAAATGAATTGGAGCCAATAGTCGGAGTCACCTAGTGCAG | 27000 fluorescence intensity (a.u.)
ATGATGGATAAGTGGGTGGGCCAAACAGGTGCTCACGTGGCGGAGTCACCTAGTGCAG | 3680 fluorescence intensity (a.u.)
TTAATCACTGGTAATTATAGATTTATAGGTGATTAATCACCGGAGTCACCTAGTGCAG | 17900 fluorescence intensity (a.u.)
TCATATGATTTATAATTCTTACGACTAACTTGAATCAATTCGGAGTCACCTAGTGCAG | 10700 fluorescence intensity (a.u.)
CAAAACTGACTTGATCAGTTCAAAATGAAAGTGGAGCGATCGGAGTCACCTAGTGCAG | 5390 fluorescence intensity (a.u.)
TTGTTTTGTATTAGTAGTTAATTACCGCGCTCTCTAATACCGGAGTCACCTAGTGCAG | 5100 fluorescence intensity (a.u.)
GCTTATCATGATGATTGATGATATCGGAGTAGAATTTATCCGGAGTCACCTAGTGCAG | 24600 fluorescence intensity (a.u.)
AAATAACTGGTGGATATTTGTACGCTGCCCCTGAGGAACTCGGAGTCACCTAGTGCAG | 3900 fluorescence intensity (a.u.)
TTTCGCAATTAAATCTGGTACTAATAGGTTTCGCCTTCCACGGAGTCACCTAGTGCAG | 5660 fluorescence intensity (a.u.)
ATATAGACGTAATTTAAGACGGTAAAATCCCGCTTATATACGGAGTCACCTAGTGCAG | 5030 fluorescence intensity (a.u.)
TTCCAAATTAGTCATTTATCAACAAATATATCCTAACACACGGAGTCACCTAGTGCAG | 11300 fluorescence intensity (a.u.)
ATCCTAATGACGATTAAAAGGAGAGACGTCAGGGAGGCCGCGGAGTCACCTAGTGCAG | 3650 fluorescence intensity (a.u.)
TGAGATTGTAATTGAAGTCGTCGTCGTGTCGTCCTCCGGCCGGAGTCACCTAGTGCAG | 4720 fluorescence intensity (a.u.)
GTTCAGTTCATACACATGCATAATTAGCTTTAATTATTTACGGAGTCACCTAGTGCAG | 3570 fluorescence intensity (a.u.)
CTGACGATAGTTTACAGGTTAATTTACACTACATATATATCGGAGTCACCTAGTGCAG | 4370 fluorescence intensity (a.u.)
CATGACAAACTCTATTAATTTTATGGCTGCATATGAATATCGGAGTCACCTAGTGCAG | 9260 fluorescence intensity (a.u.)
CCACCTCACCACCAATCAACCCAATGCAAATGCCATTTCTCGGAGTCACCTAGTGCAG | 4330 fluorescence intensity (a.u.)
CGTTCATCATTACCCTTGACACTCTAGAAATTGATATTATCGGAGTCACCTAGTGCAG | 3490 fluorescence intensity (a.u.)

Sequence | binding signal
ATAAAATAAAATTAACAATCACAACCATAGTGCTTATCAACGGAGTCACCTAGTGCAG | 8480 fluorescence intensity (a.u.)
TAAATTGTTAAAATTTAGCACACGCTGACTAATCCTCGCTCGGAGTCACCTAGTGCAG | 14500 fluorescence intensity (a.u.)
TGTTACAGCATCTAATTAACAGAAACTCGTGTGTCGATATCGGAGTCACCTAGTGCAG | 5150 fluorescence intensity (a.u.)
CCTGATTAATTGTTAATTTTGCTGATGCAGCTGTTGCTTGCGGAGTCACCTAGTGCAG | 65000 fluorescence intensity (a.u.)
AATTTGATTTGGCCTGTATATTACTATGTGCAGGGTTCCCCGGAGTCACCTAGTGCAG | 20100 fluorescence intensity (a.u.)
ACTTTTCCGTCACATCGTTTTAATTTCTTTAAACTTTTAACGGAGTCACCTAGTGCAG | 3400 fluorescence intensity (a.u.)
TCTCTCCAATTAAGCCGAAAGTGTCATCCAGCAAATTACCCGGAGTCACCTAGTGCAG | 5160 fluorescence intensity (a.u.)
CAATTATCATTAGATTAGATAGGCTGGAAAAGTTGATCTTCGGAGTCACCTAGTGCAG | 10700 fluorescence intensity (a.u.)
TCACCAAAATAAATTTAATAGAAATTTTGGCATGACCTCCCGGAGTCACCTAGTGCAG | 12800 fluorescence intensity (a.u.)
TCCTTTTAACTGATTTTCGGTATGTTTAGCATAAACTCGTCGGAGTCACCTAGTGCAG | 12800 fluorescence intensity (a.u.)
ACTAGACAATTTGAATTTACAACTATATATACTCCCAATCCGGAGTCACCTAGTGCAG | 3250 fluorescence intensity (a.u.)
TGCCCGTGATAGATGCGGCCGACTGGCCGAGCAGCCAGCTCGGAGTCACCTAGTGCAG | 4750 fluorescence intensity (a.u.)
ATAGCCAGTATAATAATCAATTTATATAATAGTTACTTACCGGAGTCACCTAGTGCAG | 3610 fluorescence intensity (a.u.)
ATGATTAGCAGCTGATTACTGTAGCATTACTGTAGCAAATCGGAGTCACCTAGTGCAG | 45200 fluorescence intensity (a.u.)
GCCATTGGATTGGATGATTCTGGACCGTCGGATTTGATGACGGAGTCACCTAGTGCAG | 4780 fluorescence intensity (a.u.)
CTGAAATTGAAGTGTGTGGTTGATGCTTCCTACACATGAGCGGAGTCACCTAGTGCAG | 20800 fluorescence intensity (a.u.)
TGATGAAGATGATGAGCATGTGATTGAGCTGTCTGATTGCCGGAGTCACCTAGTGCAG | 33800 fluorescence intensity (a.u.)
AATGGATTGGTAGAGTATTTCACCCTAAGGAACATATAGCCGGAGTCACCTAGTGCAG | 7960 fluorescence intensity (a.u.)
AAAACGATCAACGGTTTAGATTAATTTATACTCCGAGTGGCGGAGTCACCTAGTGCAG | 7100 fluorescence intensity (a.u.)
CGTTATGGTATGATTAATTAATTATCACCCGGAGGAACTTCGGAGTCACCTAGTGCAG | 32300 fluorescence intensity (a.u.)
TAGTAATTGCATTAGTTTGTCATGGGCACATCATGCCACTCGGAGTCACCTAGTGCAG | 13000 fluorescence intensity (a.u.)

Sequence | binding signal
TTATTACAATTTAATTATATTTTAATTATTCTAAAAGCTTCGGAGTCACCTAGTGCAG | 20200 fluorescence intensity (a.u.)
ACTGACGGATATATGATCAGTTCACCCCTTCCGGCCTTCGCGGAGTCACCTAGTGCAG | 7910 fluorescence intensity (a.u.)
ATTAATTTGTGTGCGAAACTTACATGTGGGTCCCATGGGTCGGAGTCACCTAGTGCAG | 25300 fluorescence intensity (a.u.)
GCTTTGGGTCTTGGTTGATTGATTTATTTATAGGCGCGGTCGGAGTCACCTAGTGCAG | 22000 fluorescence intensity (a.u.)
TTAATTGCATAGATTGCGACTAATTTACAAGATGAATCTTCGGAGTCACCTAGTGCAG | 31400 fluorescence intensity (a.u.)
CTGTTCACACGGATTGATCATTGATGGATCCATGCTGATGCGGAGTCACCTAGTGCAG | 9220 fluorescence intensity (a.u.)
CTACATAATATTATTAATTTGTGTGCGAAACTGCATGTGGCGGAGTCACCTAGTGCAG | 13100 fluorescence intensity (a.u.)
ATTACATATAAATTATATTGTAATTACATATAAGTTACAACGGAGTCACCTAGTGCAG | 11700 fluorescence intensity (a.u.)
GGAATTGCGTGATTGAATTCAAAATTGGGATGATAAATATCGGAGTCACCTAGTGCAG | 16200 fluorescence intensity (a.u.)
GTAATTGAAGTCAGAGTCAAGTTTGAAGTCTTTGAATATGCGGAGTCACCTAGTGCAG | 18300 fluorescence intensity (a.u.)
TATTGCTAATTAGCCCGTTAAAACAGCTCGATCAGGGCCCCGGAGTCACCTAGTGCAG | 32100 fluorescence intensity (a.u.)
CAAATGAAAGAGAGACAGAGCGCATTAGAACACAAAAGTTCGGAGTCACCTAGTGCAG | 3640 fluorescence intensity (a.u.)
GATCATGATGGTATATTCTACATCTTGTTACAGCTATGTGCGGAGTCACCTAGTGCAG | 3140 fluorescence intensity (a.u.)
GGCTATTTCGTCCCAATTACCAATGGGCTAATTTTGGATCCGGAGTCACCTAGTGCAG | 5000 fluorescence intensity (a.u.)
AGACAATCAAGCCAAATGTTCAATTGATGGCTACGTCGCTCGGAGTCACCTAGTGCAG | 7960 fluorescence intensity (a.u.)
GATACTGTCGACGCTTAATTAGATTGTACTTTATACCACGCGGAGTCACCTAGTGCAG | 5570 fluorescence intensity (a.u.)
TCAAAATTTGATGGCAAAACAGGTAAATTCAAACGAATTTCGGAGTCACCTAGTGCAG | 10500 fluorescence intensity (a.u.)
GATGATTTATATGATTGCAAGTGGTTAAATATATAATTATCGGAGTCACCTAGTGCAG | 22400 fluorescence intensity (a.u.)
TCAATTAATTAATTAATTAACTACACTTTCACACGAGTCTCGGAGTCACCTAGTGCAG | 52700 fluorescence intensity (a.u.)
ATTAAATTGCCTATGGGCTCACCGGCCAATAACAAACTCCCGGAGTCACCTAGTGCAG | 17500 fluorescence intensity (a.u.)
GTAAAATTGATGTTACTAGATTTATCATTAATCAAACTATCGGAGTCACCTAGTGCAG | 14700 fluorescence intensity (a.u.)
